According to PubChem BioAssay AID651820 (National Center for Advancing Translational Sciences (NCATS), 2012):
The campaign covered roughly 340,000 compounds. About 12,000 (3.5%) were called active. This list was built around the results that the source calls inconclusive (neither active nor inactive); the mix of calls is not that of the screen. The call rests on the fitted dose curve; in most records, active means well fitted inhibition curve with a large enough effect; inconclusive means small, poorly fitted or top-dose-only effect, or another doubt; inactive means no such curve, though single readings can be large or run the other way. No potency is given beside an inconclusive call; the fits are too rough.

Test: qHTS Assay for Inhibitors of Hepatitis C Virus (HCV)
Details: Huh7.5.1 HCVcc-Cre (HCVcc is cell-culture hepatitis C virus) infection, luciferase reporter, 44 h; activity change, negative = inhibition: at 41.8 µM (top of the series)
In short: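 Infectious HCVcc-Cre (~0.5 moi) was added to cells just after compound, with cells seeded 4 h earlier at 1,000 per well. Luciferase activity after 44 h culture reported infection; substrate was incubated 15 min at room temperature before reading.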
On the % scale 0 is the no-effect control and ±100 the full control effect; potency means the concentration at half of the fitted maximal effect; tags describe the fitted curve by direction and shape.

SMILES | Potency | activity change, negative = inhibition
Cc1cc(C(F)(F)F)n2nc(-c3cccs3)cc2n1 | inactive | 
C=CCN1C(=O)c2ccc(C(=O)OCC(=O)N3CCN(c4ccccc4)CC3)cc2C1=O | inactive | 
CN(CCOc1ccccc1)C(=O)CNC(=O)c1ccc(C(C)(C)C)cc1 | inactive | 
CCN(CC)c1ccc(NC(=O)c2ccc3c(c2)OCO3)cc1 | inconclusive [inhibitor, single point] | 
CCCC(=O)NC(=S)Nc1sc2c(c1C(N)=O)CCC2 | inactive | 
CCCCCCn1c(N2CCN(c3ccccc3)CC2)nc2c1c(=O)[nH]c(=O)n2C | inactive | 
O=C1Nc2ccc(Br)cc2C1(O)Cc1ccncc1 (stereo unspecified) | inactive | 
COc1ccc(-c2cccc(NC(=O)COc3ccc(Cl)cc3)c2)nn1 | inactive | 
CCc1nc2ccccc2c(C(=O)OCc2nc3ccccc3c(=O)[nH]2)c1C | inconclusive [inhibitor, partial curve] | 
CCc1nc(SCC(=O)c2ccc(Cl)s2)c2oc3ccccc3c2n1 | inconclusive [inhibitor, full curve] | 
O=c1[nH]nc(N/N=C/c2ccc(Cl)cc2Cl)c(=O)[nH]1 | inactive | 
O=C(CN1C(=O)NC2(CCCCCCC2)C1=O)Nc1cccc(Br)c1 | inconclusive [inhibitor, single point] | 
CC1CC2C(C(O)CC3(C)C(O)CCC23)C2(C)CCC(=O)C=C12 (stereo unspecified) | inactive | 
COc1ccc2nc(SCC(=O)Nc3ccc4[nH]c(=O)[nH]c4c3)[nH]c2c1 | inactive | 
COc1ccc2sc(N(CCCN(C)C)C(=O)c3ccc(S(=O)(=O)N4CCc5ccccc5C4)cc3)nc2c1 | inconclusive [inhibitor, partial curve] | 
COc1ccc([N+](=O)[O-])cc1NC(=O)c1ccc(N(Cc2ccccc2C)S(C)(=O)=O)cc1 | inconclusive [inhibitor, partial curve] | 
CCN(CC)CCN(C(=O)C1=COCCO1)c1nc2c(OC)ccc(OC)c2s1 | inconclusive [inhibitor, partial curve, poor fit] | 
O=C1NC(=S)S/C1=C\c1cc(Cl)ccc1Cl | inconclusive [inhibitor, single point] | 
CCOC(=O)N1CCN(Cc2nc(-c3ccc(Cl)cc3)no2)CC1 | inconclusive [inhibitor, single point] | 
Cc1ccc(-c2csc(N3CCN(c4ccc5nc(-c6ccncc6)n(CCN6CCCCC6)c5c4)CC3)n2)cc1 | inconclusive [inhibitor, full curve, poor fit] | 
COc1cc(/C=C2\CCOC2=O)cc(OC)c1OC | inconclusive [inhibitor, single point] | 
O=C(Nc1ccncc1)c1ccc(Cl)c(S(=O)(=O)N2CCCCC2)c1 | active: 10 µM | 
CN=C1SC(CC(=O)Nc2sc3c(c2C#N)CCCC3)C(=O)N1C (stereo unspecified) | inconclusive [inhibitor, full curve] | 
CSc1nc(-c2ccccc2)nc(SC)c1C(C)=O | inconclusive [inhibitor, single point] | 

SMILES | Potency | activity change, negative = inhibition
CC(C)(C)c1ccc(/C=N/NC(=O)c2ccccn2)cc1 | inconclusive [inhibitor, partial curve] | 
CC(C)Oc1cccc(C(=O)C2CCCN(Cc3cccn3-c3cccnc3)C2)c1 (stereo unspecified) | active: 11.2 µM | 
CCN=C1S/C(=C\c2cn(CC)c3ccccc23)C(=O)N1CC | inconclusive [inhibitor, partial curve, poor fit] | 
CCCCn1c(SCC(=O)N2CCCCC2)nc2cc(S(N)(=O)=O)ccc21 | inactive | 
CCCCC(=O)Nc1ccc(NC(=O)C2CC2)cn1 | inactive | 
OCCN1CCN(C(=S)c2ccc(Cl)c(Cl)c2)CC1 | inactive | 
CCOc1cc(/C=N/NC(=O)c2cc(-c3cccc(OC)c3)nc3ccccc23)ccc1O | inactive | 
Cc1ccccc1OCCCCn1cnc2ccccc21 | active: 7.94 µM | 
CCC(NC(=O)c1cc(COc2ccc(C)nc2)on1)c1ccc(C)cc1 (stereo unspecified) | inconclusive [inhibitor, single point] | 
Cc1csc2ncc(C(=O)Nc3ccc(C(F)(F)F)cc3)c(=O)n12 | inconclusive [inhibitor, single point] | 
Cc1ccc2cc3cc(C(=O)NCCCN4CCCCCC4)oc3nc2c1 | inconclusive [inhibitor, partial curve] | 
CC(C)N1C(=O)S/C(=C/c2ccc3c(c2)n(C)c(=O)n3C)C1=O | inconclusive [inhibitor, partial curve] | 
CC1CCN(CCCNC(=O)c2cc3c(s2)-c2ccccc2OC3)CC1 | inconclusive [inhibitor, full curve] | 
Cc1ccc(NC(=O)c2cccc(S(=O)(=O)N3CCCCC3)c2)cc1 | inconclusive [inhibitor, single point] | 
Cc1cccc(NC(=O)c2ccc3c(=O)n(CC4CCCO4)c(=S)[nH]c3c2)c1 (stereo unspecified) | active: 11.2 µM | 
Cc1ccc(/C=N/Nc2cccc3cccnc23)c(O)c1 | inconclusive [inhibitor, single point] | 
COc1ccc2c(c1)CCc1c(C(=O)NC3CCCCC3)noc1-2 | inconclusive [inhibitor, partial curve] | 
NC(=O)c1c(NC(=O)c2ccc([N+](=O)[O-])o2)sc2c1CCCC2 | inconclusive [inhibitor, partial curve] | 
CN(C1=C(N2CCCCC2)C(=O)c2ccccc2C1=O)c1ccccc1 | active: 12.6 µM | 
O=[N+]([O-])c1ccccc1-c1ccc(C(=S)N2CCCCC2)o1 | inconclusive [inhibitor, single point] | 
O=S(=O)(c1ccc(S(=O)(=O)N2CCCC2)cc1)N1CCCCCC1 | inactive | 
c1cnc(OCCN2CC2)cn1 | inactive | 
COc1ccc(NS(=O)(=O)c2cccc(NC(=O)CCC(=O)c3cccs3)c2)cc1 | inactive | 
O=C(CNC(=O)c1ccc(Br)o1)NC1CCCCC1 | inactive | 

SMILES | Potency | activity change, negative = inhibition
CCc1ccccc1NC(=O)CN1CCN(CC(=O)Nc2ccc3c(c2)OC2(CCCCC2)O3)CC1 | inconclusive [inhibitor, single point] | 
CC(=O)Nc1ccc(N(C(=O)CNC(=O)c2ccco2)C(C(=O)NC2CCCC2)c2ccco2)cc1 (stereo unspecified) | inactive | 
Clc1ccc(-c2csc(N/N=C/c3ccc4c(c3)OCO4)n2)cc1 |  | inconclusive: -39.4% [inhibitor]
C(=C\c1ccccc1)/CSc1nnc(-c2cccnc2)n1Cc1ccco1 | inconclusive [inhibitor, single point] | 
CCNc1nc(NC(C)C)nc(N(C#N)CCOc2ccccc2)n1 | active: 22.4 µM | 
Cc1ccc2c(C)c(C)c(=O)n(C)c2c1 | inconclusive [inhibitor, partial curve] | 
CC1Sc2ccc(S(=O)(=O)N3CCN(c4cccc(Cl)c4)CC3)cc2NC1=O (stereo unspecified) | inconclusive [inhibitor, single point] | 
COC(=O)COc1ccccc1C(=O)Nc1ccc(OC)cc1 | inconclusive [inhibitor, single point] | 
CCOc1ccc(NC2c3ccccc3C(=O)N2Cc2ccco2)cc1 (stereo unspecified) | inconclusive [inhibitor, partial curve] | 
CC(C)C[C@H]1CNC(=S)N1CC1CCN(CCC23CC4CC(CC(C4)C2)C3)CC1 | inconclusive [inhibitor, full curve, poor fit] | 
CCN(CC)c1ccc(/C=N/Nc2nc(C)cc(C)n2)c(O)c1 | inconclusive [inhibitor, partial curve] | 
Cc1onc(-c2ccccc2)c1C(=O)N/N=C(\N)COc1ccc(Cl)cc1 | inconclusive [inhibitor, single point] | 
COc1ccc(CCCc2nnc(SCC(=O)Nc3nccs3)n2C)cc1C | inactive | 
O=C(NCc1ccc2c(c1)OCO2)c1nc(S(=O)(=O)Cc2ccccc2)ncc1Cl | inconclusive [inhibitor, single point] | 
COc1ccc(N2CCN(C(c3cccs3)C(C)NC(=O)C(=O)N3CCCC3)CC2)cc1 (stereo unspecified) | inconclusive [inhibitor, single point] | 
CC(C)(C)NC(=O)c1ccc(NC(=O)C2COc3ccccc3O2)cc1 (stereo unspecified) | inconclusive [inhibitor, partial curve, poor fit] | 
COc1ccc(/C=C/C(=O)N(C)CC(=O)Nc2cccc(F)c2)cc1S(=O)(=O)N1CCCCC1 | inconclusive [inhibitor, partial curve] | 
O=C1N/C(=C/c2ccc(N3CCOCC3)o2)C(=O)N1c1cccc(Cl)c1 | inconclusive [inhibitor, full curve, poor fit] | 
CCOc1cc(NC(=S)Nc2ccccc2)c(OCC)cc1NC(=O)c1ccc(OC)cc1 | inconclusive [inhibitor, full curve] | 
COCCn1nnnc1CN(CCc1ccccc1)Cc1cc2ccc(C)cc2[nH]c1=O | inactive | 
Cc1ccc2cc(CCNC(=O)c3cccc([N+](=O)[O-])c3)c(=O)[nH]c2c1 | inconclusive [inhibitor, single point] | 
CCc1nnc(NC(=O)CSc2nc3c(c(=O)n2CC)SC(C)C3)s1 (stereo unspecified) | inconclusive [inhibitor, single point] | 
COc1ccc(OC)c(S(=O)(=O)Nc2c(NC3CCCCC3)c3ccccc3oc2=O)c1 | inconclusive [inhibitor, single point] | 
